The supplement of paper PMC11417369
± gives the standard deviation of the averaged measurements. The list shows a part of the results.

These sequences were tested on PfAP2-LT AP2 domain (GST-tagged) (assay: gcPBM binding intensity (ln(normalized median fluorescence intensity)); higher = stronger DNA binding).
In short: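 Binding intensity values are the highest Masliner-normalised natural-log median intensity among replicate spots of either probe orientation. The binding step lasted 1 h in 1× PBS with 1% milk, 0.2 mg/ml BSA, 0.5% salmon testes DNA and 0.03% Triton X-100, using GST-tagged P. falciparum DNA-binding domains expressed in E. coli on an Agilent 4 × 180k array of primer-extended double-stranded 36-bp intergenic genomic probes plus negative controls. Alexa488 anti-GST antibody and a 488 nm scan detected bound protein.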
“ATATATATATAAAGTTGTACATTTTTTATTTTTTCA [XGTACX_site7847]” was tested, and the “gcPBM binding intensity (ln)” value was 8.74 ± 0.38. “AAATTAATTAAATATACACACATATATAAATATATA [CACACA_site391]” was tested, and the “gcPBM binding intensity (ln)” value was 8.79 ± 0.39. In the case of “TTGTTTTTAGTTTATACACACCATATTAATATAATG [CACACA_site7452]”, the “gcPBM binding intensity (ln)” value is reported as 8.92 ± 0.47. In the case of “TTATATTATGGACACACACACAAAAAAAAAAAAAAA [CACACA_site7744]”, the “gcPBM binding intensity (ln)” value is reported as 9.32 ± 0.51. In the case of “ATTTGGCATGGACACACACACACACCGACAGACATA [CACACA_site4491]”, the “gcPBM binding intensity (ln)” value is reported as 10 ± 0.27. “TATATATATATGTATACACACATATGTATGTTATGT [CACACA_site4053]” was tested, and the “gcPBM binding intensity (ln)” value was 9.57 ± 0.2. In the case of “TTTGTTAATTATAAATGTACATATTATATATATATA [XGTACX_site8870]”, the “gcPBM binding intensity (ln)” value is reported as 8.52 ± 0.44. For “GCATAATATACTCTTACACACCATTTCTATATACAT [CACACA_site6799]”, the “gcPBM binding intensity (ln)” value was 9.29 ± 0.49. In the case of “AAAATATATTATATATGTACATATTACGTTTTAATT [XGTACX_site2518]”, the “gcPBM binding intensity (ln)” value is reported as 8.91 ± 0.35. “CAATTTTAAGTAATCAATTTTTTTAAAAAACACAAA [CACACA_negctrl_site961]” was tested, and the “gcPBM binding intensity (ln)” value was 8.21 ± 0.45. For “TTAAAACCAAAACACAGTACATATATATATATATAT [XGTACX_site5668]”, the “gcPBM binding intensity (ln)” value was 9.71 ± 0.23. In the case of “TTAATATTAATATATTGTACATATATGCACATATTT [XGTACX_site6569]”, the “gcPBM binding intensity (ln)” value is reported as 8.82 ± 0.4. With “AACGTTCATATTTCCACACACAAAAAATAAATATAA [CACACA_site3344]” the “gcPBM binding intensity (ln)” value was 9.2 ± 0.4. For “AATATTATAATATAAACACACAAAATTCAATTATAT [CACACA_site3789]”, the “gcPBM binding intensity (ln)” value was 8.85 ± 0.41. In the case of “AAAAATAAAGGGCGAAAAAAAAAAAAAAAAAAAAAA [GTGCAC_negctrl_site671]”, the “gcPBM binding intensity (ln)” value is reported as 8.34 ± 0.47. With “CTTGTATTTAAACACACACACACTTTCTTTTTTTAA [CACACA_site5133]” the “gcPBM binding intensity (ln)” value was 9.37 ± 0.31. For “TTGATGATATAAAAAAGTACTTATATTATATTATAT [XGTACX_site6492]”, the “gcPBM binding intensity (ln)” value was 8.56 ± 0.49. “TTTCCTATTTAATATAGTACATAAGAAATAATTTTA [XGTACX_site5952]” was tested, and the “gcPBM binding intensity (ln)” value was 8.05 ± 0.32. “TTGACACGTATATGCACACACCCGTAAGTGTCCATT [CACACA_site2764]” was tested, and the “gcPBM binding intensity (ln)” value was 9.47 ± 0.31. “ATATTTTATTATTGTTGTACTTTTTTTTGATTGTTT [XGTACX_site4090]” was tested, and the “gcPBM binding intensity (ln)” value was 8.98 ± 0.38. For “TTTTTTATGAACACGTCACACATCATTAAAATGTTT [CACACA_site5934]”, the “gcPBM binding intensity (ln)” value was 8.79 ± 0.52. For “TCACACATATATTCATGTACATATTAATATTTCCAT [XGTACX_site5387]”, the “gcPBM binding intensity (ln)” value was 8.92 ± 0.34. “TTTAATATTTTTCAATGTAGAAAGTTTGTCTGTTAT [CACACA_negctrl_site973]” was tested, and the “gcPBM binding intensity (ln)” value was 8.51 ± 0.5. With “AGTTATAAACATATGTGTACTTATAAAAACATATAG [XGTACX_site3268]” the “gcPBM binding intensity (ln)” value was 8.9 ± 0.41.
